From publication PMC6736310, “Targeting oxidative pentose phosphate pathway prevents recurrence in mutant Kras colorectal carcinomas” (PLoS Biology, 2019)

Molecular target: the molecule itself
Assay: cross-linking; Flag-tagged TPI or K56A/K56E mutants expressed in HEK293T cells, treated with or without 0.025% glutaraldehyde; monomer and dimer by western blot

B1: TPI K56E mutant, ectopically expressed with a Flag or an HA tag (enzyme)
chain: not shown
notes: triosephosphate isomerase with K56E (mimic of constitutive malonylation); no chain bears both tags; also called Flag-tagged K56E; HA-tagged K56E; source: transfected, in lysate: HK2-10-derived CDCP1+ cells; HEK293T cells
stoichiometry N: 2
